Laboratory results taken from PubChem BioAssay (NCI).
Several values for one entry are separate records, joined by “and”; a condition that tells them apart may be missing. Identical values can stand only once.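 Method: 48-hour compound exposure of cells in 96-well plates, five concentrations, linear interpolation of endpoints. GI50 is the concentration that inhibits growth by half. Definition used: TGI = concentration required for complete inhibition of growth.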

system: NCI-H322M lung; test: NCI anticancer screen, dose series, 48 h

SMILES	TGI	GI50
COc1cc(C2c3cc4c(cc3[C@H](NC(=O)c3cccs3)C3COC(=O)[C@H]23)OCO4)cc(OC)c1OC (some centres not stated)	> 100 µM	
CC(C)c1ccc2c(N=Nc3ccc(S(N)(=O)=O)cc3)c(O)[nH]c2c1	> 25 µM	> 22.5 µM
C[C@]12CCC3[C@@H](C[C@H]4OC(=O)[C@@]35CCC(=O)C=C45)C1CCC2=O (some centres not stated)	> 100 µM	
Cn1c(=O)cc(NNc2ccc(Br)cc2)[nH]c1=O	9.75 µM	
COc1ccc(-n2nnc3c(C#N)c(-c4ccccc4)c(C)n3c2=O)cc1	> 100 µM	
O=C(Nc1ncc(Cc2ccccc2)s1)c1ccc2c(c1)OCCO2	> 100 µM	0.0556 µM
Cc1nc2c(O)cccc2c(=O)[nH]1	> 1000 µM	
Cc1cc2cc(Cl)ccc2nc1C(=O)c1ccccc1	> 100 µM	
OC(c1ccc(F)cc1)C(F)(F)c1nc(-c2ccccc2)no1 (configuration not stated)	99.2 µM	
Cn1c(=O)oc2cc(C(=S)N3CCC(Cc4ccccc4)CC3)ccc21	> 100 µM	
CN(C)c1ccc(/C=C(\C#N)c2cc3ccccc3n2C)cc1	> 100 µM	0.778 µM
Fc1ccc(CNc2c3ccccc3nc3ccccc23)cc1	8.02 µM	2.39 µM
O=C(CC(=O)N(C(=O)c1ccccc1)c1ccc(Cl)cc1)N/N=C\c1ccccc1O	> 100 µM	
COC1OCC(OS(=O)(=O)c2ccc(C)cc2)C(OC(=O)c2ccccc2)C1OC(=O)c1ccccc1 (configuration not stated)	> 100 µM	> 100 µM
C=C1C(=O)OC2C[C@H](C)C3CC(=O)C(C)=C3CC12 (some centres not stated)	> 58.5 µM	
O=C1NCC2(CCN(Cc3ccccc3)CC2)N1	> 100 µM	
NC(=O)Cc1ncn(-c2ccccc2)n1	> 100 µM	
COC(=O)c1cc(C)n2c1CS[C@@H]2c1ccccc1	> 100 µM	
COc1ccc2c(CC(=O)O)cc(=O)oc2c1	> 100 µM	
O=C(O)c1cc(N/C=C2\C(=O)c3ccccc3OC2O)ccc1O (configuration not stated)	> 150 µg/mL	50 µg/mL
CCN(CC)CCCC(C)NC(=O)c1cc(-c2nccn2C)nc2ccc(C)cc12 (configuration not stated)	> 100 µM	
C=C[C@@]1(C)CC2CC[C@]3(C)C(C)=CC(=O)CC3[C@]2(C)CC1O (some centres not stated)	> 100 µM	
C/C(O)=C(/C=N\C(=S)Nc1ccc(Cl)c(Cl)c1)C(=O)Nc1ccccc1C	> 100 µM	
CSC(=S)N/N=C/c1ccccc1	> 100 µM	
Cn1c(=O)nc2n(-c3ccc(F)cc3)c3ccccc3nc-2c1=O	85 µM	

SMILES	TGI	GI50
CCOC(=O)C1=C(N)Oc2c(sc3c(C)cccc23)C1c1ccc(Cl)cc1 (configuration not stated)	21.7 µM	6.96 µM
Cc1ccc(S(=O)(=O)NC(=O)C2(Br)S(=O)(=O)OCCOS2(=O)=O)cc1	> 100 µM	
COCC[N+](CCNC(=O)c1cccc2c(N)c3cccc(C)c3nc12)(CCOC)Cc1ccc([N+](=O)[O-])cc1	62.5 µM	
CCCCCCCCCCCCOC1C(CNC(=O)C2OC3OC(C)(C)OC3C2NC(=O)CN2CCN(c3ccccn3)CC2)OC2OC(C)(C)OC21 (configuration not stated)	5.78 µM	2.43 µM
CN(C)CCCc1cccnc1	> 100 µM	
NC(=O)NC(CC(=O)O)C(=O)O (configuration not stated)	> 100 µM	
O=C(/C=C/C=C/c1ccccc1)c1ccc(Nc2nc(Nc3ccccc3)nc(Nc3ccccc3)n2)cc1	> 100 µM	> 100 µM
CC1(C)Cc2cccc(OCC(O)CN3CCN(c4ccc(F)cc4)CC3)c2O1 (configuration not stated)	> 50 µM	> 50 µM
CCOC(=O)C1=C(OS(=O)(=O)C(F)(F)F)CCCC1	> 100 µM	
COc1ccc(C2=NN(C(=O)c3ccccc3)C(O)(c3cc(F)c(Cl)cc3Cl)C2)cc1OC (configuration not stated)	> 100 µM	
CCCCCCCCCCCC1=NC(C)(C)CN1CCO	27.7 µM	12.4 µM
CC1(C)N(OC2CCCCO2)C(c2ccccc2)C(c2ccccc2)=[N+]1[O-] (configuration not stated)	> 100 µM	
CS(=O)(=O)N1CCN(Cc2cc3nc(-c4cccc5[nH]ncc45)nc(N4CCOCC4)c3s2)CC1	> 100 µM	0.895 µM and 0.267 µM
O=C(N1CCOCC1)C1(c2ccccc2)CCNCC1	> 100 µM	
COc1ccc(Nc2c3c4c(cccc4[nH]c2=O)C(=O)c2ccccc2-3)cc1	> 100 µM	0.0464 µM
CC(=O)c1ccc(N2CCN(c3c(O)c4c(c(O)c3Cl)C(=O)C=CC4=O)CC2)cc1	31.3 µM	
O=C1OC(c2ccccc2)C2CC3CC4(CCC3CN12)OCCO4 (configuration not stated)	> 100 µM	
O=C(O)CNC(=O)c1ccccc1O	> 100 µM	
O=C(Nc1ccc(Cl)c(Cl)c1)C(=O)C(C1OC(=O)c2ccccc21)[N+](=O)[O-] (configuration not stated)	> 100 µM	
Cc1ccc(C2(C)NC(=S)N(NC(N)=S)C2=S)cc1 (configuration not stated)	> 100 µM	
CNc1nnnn1C1OC(CO)C(O)C1O (configuration not stated)	> 100 µM	
O=C(c1ccccn1)c1nnn2ccccc12	> 100 µM	
c1ccc2c(c1)ccc1ncccc12	> 100 µM	
CCc1ccc(CCC(=O)Nc2ncc(Cc3cc(Cl)ccc3Cl)s2)o1	> 50 µM	2.58 µM
COc1ccccc1CNCCCN1C(=O)c2ccc3c4c(ccc(c24)C1=O)C(=O)N(CCCNCCCCNCCCCN)C3=O	8.81 µM	1.35 µM

SMILES	TGI	GI50
C[C@H](CCC(=O)O[C@@H]1CC[C@@]2(C)C(CC[C@H]3[C@@H]4CC[C@H]([C@H](C)CCc5nc6ccccc6[nH]5)[C@@]4(C)CC[C@@H]32)C1)[C@H]1CC[C@H]2[C@@H]3CCC4C[C@H](O)CC[C@]4(C)[C@H]3CC[C@]12C (some centres not stated)	> 100 µM	
CC1(C)CC(=O)C(CC(C(=O)C(=O)Nc2cc(C(F)(F)F)ccc2Cl)C(=O)c2ccco2)C(=O)C1 (configuration not stated)	> 100 µM	
CCOCCc1c(O)nc(SC)[nH]c1=O	> 100 µM	> 100 µM
Cc1c(C)c(S(=O)(=O)N(CCCCCN)OCCCN)c(C)c2c1OC(C)(C)CC2	24.7 µM	
NCCCCC(N)C(=O)N1CCN(c2nc(N3CCCC3)c3nc(Cl)c(NCc4ccccc4)nc3n2)CC1 (configuration not stated)	33.6 µM	
COc1ccc(/C=C/C(=O)c2nc3ccccc3[nH]2)cc1	> 77.2 µM	
CC1(C)CC(=O)C(C(c2cccc(O)c2O)C2C(=O)CC(C)(C)CC2=O)C(=O)C1	> 100 µM	
O=C(/C=C/c1ccccn1)c1ccccc1O	4.78 µM	2.16 µM
COC(=O)CSc1ccccc1	> 100 µM	
Cc1cc(=O)oc2c(CNC(C)C(=O)O)c(O)ccc12 (configuration not stated)	> 100 µM	
C=CC1(c2ccc3ccccc3c2)OCC(CC)(CC)CO1	68.6 µM	
CCCN(CCC)c1ccc(C=O)cc1	> 100 µM	> 100 µM
Cc1ccc(Cl)cc1Nc1nc(C(F)(F)F)ccc1C(=O)N/N=C/c1c(Cl)cccc1Cl	13.5 µM	0.66 µM
COC(=O)CCC(=O)CC(=O)C(=O)Nc1ccc(F)cc1	> 100 µM	
CN(CCCCCl)P(=O)(OCc1ccc([N+](=O)[O-])o1)C(F)(F)c1ccc(CC(=O)N[C@@H](CC(=O)O)C(=O)N[C@@H](Cc2ccc(C(F)(F)P(=O)(OCc3ccc([N+](=O)[O-])o3)N(C)CCCCCl)cc2)C(N)=O)cc1 (some centres not stated)	> 100 µM	47.6 µM
C=CCCC(O)c1ccc(C(O)CCCCCCCCCCCC)o1 (configuration not stated)	> 100 µM	71.8 µM
CN(C)CCSC(=Nc1ccccc1)N1C=COC=C1	> 100 µM	
CC(C)(C)C(=O)OCOP(=O)(OCOC(=O)C(C)(C)C)C1CCCN(OC(=O)c2ccccc2)C1=O (configuration not stated)	6.77 µM	1.48 µM
CCCCOP(=O)(OCCCC)/C(C#N)=C/c1ccc(C)o1	> 100 µM	
COc1ccc(-c2cn(-c3ccc(Cl)cc3)c(=S)[nH]2)cc1OC	> 100 µM	51.5 µM
N#Cc1ccc(/C=N\N2C(=O)c3ccccc3C2=O)cc1	> 100 µM	
O=c1n(CCCN2CCN(c3cccc(Cl)c3)CC2)nc2n1-c1ccc3ccccc3c1SC2	> 100 µM	
Cn1cc(C2=C(c3c4n(c5ccccc35)CC(CN)C4)C(=O)NC2=O)c2ccccc21 (configuration not stated)	13.3 µM	3.78 µM
Cc1[nH]c2ncn3ncnc3c2c1Cc1ccccc1	> 100 µM	
O=C1CSC(=S)N1c1ccc(F)cc1F	> 100 µM	

SMILES	TGI	GI50
O=C(CCCCCCC(=O)N/N=C/c1ccc(N(c2ccccc2)c2ccccc2)cc1)NO	12.4 µM	3 µM
COc1ccc(-c2nc(N)c(C#N)c3c2CCSc2ccc(C)cc2-3)cc1OC	> 100 µM	
C(=N/Nc1ncnc2nc[nH]c12)/c1ccccn1	22.6 µM	0.199 µM
CC(=O)c1c2c(cc3c1CC1(Cc4cc5c(cc4C1=O)CCC5)C3)CCC2 (configuration not stated)	> 100 µM	
CC1C(=O)C(C)C(c2cccs2)N(N=O)C1c1cccs1 (configuration not stated)	> 100 µM	
C/C(=N\Nc1ccc2ccccc2n1)c1ccccc1O	> 100 µM	
CC1(C)CC(=O)C2=C(C1)NC(SSC1=C(C#N)C(c3ccc(Br)cc3)C3=C(CC(C)(C)CC3=O)N1)=C(C#N)C2c1ccc(Br)cc1 (configuration not stated)	> 100 µM and 150 µg/mL	> 150 µg/mL
COc1nc(/C=N/NC(N)=S)nc(OC)n1	> 100 µM	
COc1ccc(/C=C2\N=C(c3ccccc3)N(c3cc(C(F)(F)F)ccc3Cl)C2=O)cc1OC	> 100 µM	> 100 µM
CC1=Nc2nc3ccccc3n2C(C)(C)C1	> 100 µM	
Nc1ccccc1/C=N\Nc1ccccc1	> 100 µM	> 100 µM
O=c1[nH]c(=O)n(C2CC(O)C(COP(=O)(O)OC3CC(n4cc(F)c(=O)[nH]c4=O)OC3COP(=O)(O)OC3CC(n4cc(F)c(=O)[nH]c4=O)OC3COP(=O)(O)OC3CC(n4cc(F)c(=O)[nH]c4=O)OC3COP(=O)(O)OC3CC(n4cc(F)c(=O)[nH]c4=O)OC3COP(=O)(O)OC3CC(n4cc(F)c(=O)[nH]c4=O)OC3COP(=O)(O)OC3CC(n4cc(F)c(=O)[nH]c4=O)OC3COP(=O)(O)OC3CC(n4cc(F)c(=O)[nH]c4=O)OC3COP(=O)(O)OC3CC(n4cc(F)c(=O)[nH]c4=O)OC3COP(=O)(O)OC3CC(n4cc(F)c(=O)[nH]c4=O)OC3CO)O2)cc1F (configuration not stated)	> 50 µM	
CCOC(=O)c1ccc2c(c1)[n+](=O)c(C(=O)c1ccc3ccccc3c1)c(C(F)(F)F)n2[O-]	2.99 µM	1.63 µM
O=c1c2cc(Br)ccc2[nH]c(=S)n1-c1ccc(Br)cc1	> 100 µM	
CC(C)=CCC/C(C)=C/CC/C(C)=C/CC/C=C(\C)CC/C=C(\C)CCC1SC1(C)C (configuration not stated)	> 100 µM	
COCC1C(=O)c2cc3c(cc2C12C=CC1(C=C2)OCCO1)OCO3 (configuration not stated)	28.2 µM	
COc1cc(C2c3cc4c(cc3OC3(O)COC(=O)C23)OCO4)cc(OC)c1OC (configuration not stated)	> 100 µM	
Oc1ccc2ccccc2c1-c1c(Nc2ccccc2)ccc2ccccc12	28.6 µM	
OC(c1ccsc1)c1cc2ccccc2s1 (configuration not stated)	> 10 µM	
CCCCCCNC(=O)c1cc(C#Cc2cc(OC)ccc2OC)ccc1OC	> 100 µM	
COC(=O)[C@@]12CC[C@]1(C(=O)OC)C1C(C)=CC(=O)O[C@@]12C (some centres not stated)	> 100 µM	
CCCCCCc1cc2cc(C(=O)Nc3ccccc3F)c(=N)oc2cc1O	42.5 µM	
